Test results as given in patent US4690926A, “Boxazomycin A and B, new antibiotics containing benzoxazole nucleus” (Bristol-Myers Company, priority 1986, dated 1987).

Legend:
M. luteus PCI 1001 = assay: Effect of pH on antimicrobial activity (MIC, Table 8); type: cell-based; settings: Micrococcus luteus
S. aureus 209P = assay: as above; type: cell-based; settings: Staphylococcus aureus

Row | SMILES | MIC (M. luteus PCI 1001; PCI1001, pH 6) | MIC (M. luteus PCI 1001; PCI1001, pH 7) | MIC (S. aureus 209P; pH 6) | MIC (S. aureus 209P; pH 7)
1 | Cc1cc(O)c(C(N)=O)c2nc(-c3nc(CO)ncc3O)oc12 [Boxazomycin A] | 0.1 µg/mL (≈ 0.316 µM) | 0.4 µg/mL (≈ 1.26 µM) | 0.4 µg/mL (≈ 1.26 µM) | 0.8 µg/mL (≈ 2.53 µM)
2 | Cc1ncc(O)c(-c2nc3c(C(N)=O)c(O)cc(C)c3o2)n1 [Boxazomycin B] | 0.2 µg/mL (≈ 0.666 µM) | 0.8 µg/mL (≈ 2.66 µM) | 0.2 µg/mL (≈ 0.666 µM) | 0.8 µg/mL (≈ 2.66 µM)

In brackets after ≈: the same amount, converted by molar mass.
